The target of assay [1] is SARS-CoV-2 Wuhan-Hu-1 spike pseudovirus. Briefly: pseudovirus neutralization IC50; higher = weaker neutralization. As to the method:
(§1)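 Single-round luciferase reporter pseudovirus mixed with antibody dilutions and put on 293T-ACE2 cells for 48 h; signal relative to no-antibody wells, four-parameter fit.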

Assay [2] has the same target. Briefly: pseudovirus neutralization IC90; higher = weaker neutralization. As to the method:
as §1

Assay [3] concerns the target SARS-CoV-2 Delta (B.1.617.2) spike RBD. Briefly: ELISA binding EC50; higher = weaker binding; ELISA of recombinant human antibody on coated antigen, from 10 µg/ml in fourfold dilutions; four-parameter fit.
Assay [4] has as its target SARS-CoV-2 Omicron BA.1 spike protein. Described as above.
The target in assay [5] is SARS-CoV-2 Wuhan-Hu-1 spike receptor-binding domain. The description is as above.

Recombinant human monoclonal antibodies (heavy:light variable regions). ELISA EC50 on the named antigen, from 10 µg/ml down; IC50 / IC90 against spike pseudovirus on 293T-ACE2 cells, 48 h; lower = stronger. Calls: IC50 above 1,000 ng/ml = non-neutralizing; EC50 above 1,000 ng/ml = non-binder. The source prints 1000 for neutralization that was not reached; it is given as >1000 ng/ml. Only binders of the Wuhan-Hu-1 domain have neutralization values.

Here are results for 14 molecules from the supplement of paper PMC9513381.

B1: B2073 (protein)
chain 1: QVQLQESGPGLVKPSGTLSLTCAVSGGSISSSNWWSWVRQPPGKGLEWIGEIYHSGSSNYNPSLESRVTMSVDKSKNHFSLKLSSVTAADTAVYYCARASYYYGLGSYSQHPYYFDYWGQGTLVTVSS
chain 2: QSVLTQPPSVSGAPGQRVTISCTGSSSNIGAGYDVNWYQQLPGTAPKLLIYDNSNRPSGVPDRFSGSKSGTSASLAITGLQAEDEADYYCQSYDNSLGGFWVFGGGTKLTVL
Regarding B1, the “pseudovirus neutralization IC50” value in assay [1] worked out at 0.864 mg/L. The “pseudovirus neutralization IC90” value in assay [2] was over 1 mg/L. Further, the “ELISA binding EC50” value in assay [3] was found to be 0.146 mg/L; in assay [4], 0.19 mg/L; in assay [5], 0.0107 mg/L.

B2: B672 (protein)
chain 1: QVQLQESGPGLVKPSQTLSLTCTVSGGSISSSDYYWSWIRQSPGKGLEWIGYIFYSGNTYYNPSLKSRLVISVDTSKNQFSLRLSSVTAADTAVYYCARDGAMVQGVFDFWGQGILVTVSS
chain 2: EIVLTQSPATLSLSPGERATLSCKASQSVRNYLAWYQQRPGQAPRLLIYDASLRATGIPARFSGSGSGTDFTLTISSLEPEDFAVYYCQQRYNWPPLTFGGGTKVEIK
For B2, the “pseudovirus neutralization IC50” value in assay [1] was over 1 mg/L. The “pseudovirus neutralization IC90” value in assay [2] was over 1 mg/L. In addition, the figures for the “ELISA binding EC50” value in assay [3], in assay [4] and in assay [5] were 0.00758 mg/L, 0.00272 mg/L and 0.00117 mg/L, respectively.

B3: B2111 (protein)
chain 1: EVQLVESGGGLVQPGRSLRLSCAASGFTFEDYAMHWVRQVPGKGLEWVSGLTWNGGTIGYADSVKGRFFISRDNAENSLYLQMMRLRPEDTALYYCVKDRGDYGDSSWYLDLWGRGTLVTVSS
chain 2: QSALTQPRSVSGSPGQSVTISCTGTSSGVGSYDYVSWYQQHPGKAPKLMIFDVSKRPSGVPDRFSGSKSGNTASLTISGLQAEDEADYYCCSYAGDYYVFGIGTKVTVL
Take B3: the “pseudovirus neutralization IC50” value in assay [1] stood at 0.0158 mg/L. Moreover, the “pseudovirus neutralization IC90” value in assay [2] amounted to 0.335 mg/L. The “ELISA binding EC50” value in assay [3] came to 0.199 mg/L; in assay [4], 0.0144 mg/L; in assay [5], 0.00357 mg/L.

B4: B678 (protein)
chain 1: EVQLVESGGGLIQPGGSLRLSCAVSGLGVNTNYMSWVRQAPGKGLEWVSLIYGGGSTYYADSVKGRFIISRDNSENTLYLQMNNLTTEDTAVYYCATSSGWYVLRRGGFDYWGQGTLVTVSS
chain 2: EIVLTQSPGTLSLSPGERATLSCRASQSIDSRVLAWYQQKPGQAPRLLIYGASSRATGIPDRFSGSGSGTDFTLTISRLEPEDFVVYFCQQYGTSPGTFGQGTKLEIK
With B4, in assay [1], the “pseudovirus neutralization IC50” value was found to be 0.00513 mg/L. Also, in assay [2], the “pseudovirus neutralization IC90” value was found to be 0.0226 mg/L. The “ELISA binding EC50” value in assay [3] was 0.00308 mg/L; in assay [4] it was over 1 mg/L; in assay [5], 0.00277 mg/L.

B5: B677 (protein)
chain 1: EVQLVQSGAEVKKPGESLRISCKGSGYSFTSHWISWVRQMPGKGLEWMGRIDPSDSYTNYSPSFQGHVTISGDKSISTVYLQWSSLKASDSAMYYCVCTLVVVDHTIDYWGQGTLVTVSS
chain 2: EIVLTQSPATLSLSPGERATLSCRASQSVSSFLAWYQQKPGQAPRLLIYDASNRATGIPARFSGSGSGTDFTLSISSLEPEDFAVYYCQHRSNWPPYTFGQGTKLEIK
Regarding B5, the “pseudovirus neutralization IC50” value in assay [1] came to 0.0072 mg/L. Moreover, the “pseudovirus neutralization IC90” value in assay [2] is 0.0384 mg/L. Besides, the entries for the “ELISA binding EC50” value in assay [3], in assay [4] and in assay [5] were over 1 mg/L, 0.289 mg/L and 0.00773 mg/L, respectively.

B6: B2067 (protein)
chain 1: QVQLQESGPGLVKPSQTLSLTCTVSGGSISSGGYYWHWIRQHPGKGLEWIGSIYYSGSTYYNPSLKSRVTISVDTSKNQFSLKLSSVTAADTAVYYCARDFGGNANYFHFWGQGTLVTVSS
chain 2: IRMTQSPSSLSASVGDRVTITCQASQDINKHLSWYQQKPGKAPKLLIYDASDLEAGVPSRFSGSGSGTDFTFTIRTLQPEDIATYYCQQNENLPLTFGGGTKVEIK
Turning to B6, the “pseudovirus neutralization IC50” value in assay [1] was over 1 mg/L. In addition, the “pseudovirus neutralization IC90” value in assay [2] is over 1 mg/L. Moreover, the “ELISA binding EC50” value in assay [3] is 0.0135 mg/L; in assay [4], 0.024 mg/L; in assay [5] it was 0.00158 mg/L.

B7: B2071 (protein)
chain 1: EVQLVQSGAEVKKPGESLKISCKGSGYSFTRYWIGWVRQMPGKGLEWMGIIYPGDSDTRYNPSFQGQVTVSADKSIGTAYLQWRSLKASDTAMYYCARIPHYYDRFGKARAEEYFQYWGQGTLVTVSS
chain 2: QSVLTQPPSVSGAPGQRVTISCTGNTSNIGAGFDVHWYQQLPGTAPKLLIYGNTNRPSGVPDRFSASKSGTSASLAITGLQPEDEADYYCQSCDSSLSTNWVFGGGTKLTVL
For the molecule B7, the “pseudovirus neutralization IC50” value in assay [1] stood at 0.0294 mg/L. The “pseudovirus neutralization IC90” value in assay [2] was 0.271 mg/L. Moreover, the “ELISA binding EC50” value in assay [3] amounted to 0.0065 mg/L; in assay [4] it was 0.0846 mg/L; in assay [5], 0.0032 mg/L.

B8: B674 (protein)
chain 1: QVQLVQSGAEVKKPGASVKVSCKASGNTFNNHYMHWVRQAPGQGLEWMGIISPSGGSTSYTQNYQGRVTVTRDTSTSTVYMELISLRYEDTAVYYCARADSGSYHFLDYWGQGTLVTVSS
chain 2: DIQMTQSPSSLSASVGDRVTITCRASQSISSSLNWYQQKPGKAPKLLIYAASILQSGVPSRFSGSGSGTEYTLTIDSLQPEDFATYFCQQSHSIPPITFGQGTRLEIK
As to B8, in assay [1], the “pseudovirus neutralization IC50” value came out at 0.0143 mg/L. Further, the “pseudovirus neutralization IC90” value in assay [2] turned out to be 0.0995 mg/L. Besides, the “ELISA binding EC50” value in assay [3] is 0.0255 mg/L; in assay [4], over 1 mg/L; in assay [5], 0.00148 mg/L.

B9: B682 (protein)
chain 1: QVQLVESGGGVVQPGRSLRLSCAASGFNFNTYGMHWVRQAAGKGLEWVALISYDGSNEYYADSVKGRFTISRDISKNTVYLQMNSLRAEDTAVYYCAKSIFSYAYPNQYFDYWGQGTLVTVSS
chain 2: AIQLTQSPSSLSASVGDRVTITCRTSQGISNALVWYQQKPGKAPKLLIYDASSLESGVPSRFSGSGSGTDFTLTISSLQPEDFATYYCQQFNSYPLTFGGGTKVEIK
As to B9, the “pseudovirus neutralization IC50” value in assay [1] is over 1 mg/L. For the same molecule, the “pseudovirus neutralization IC90” value in assay [2] was over 1 mg/L. For the same molecule, the “ELISA binding EC50” value in assay [3] was determined as 0.0476 mg/L; in assay [4], 0.00263 mg/L; in assay [5], 0.00329 mg/L.

B10: B681 (protein)
chain 1: EVQLLESGGALVQPGGSLRLSCAASGFAFSNYAMSWVRQAPGKGLEWVSAISGRGDRTYYADSVKGRFTVSRDNSNNTLYLQMKSLRAEDTAVYYCAKDVDTAMVQAEYFQHWGQGTLVTASS
chain 2: DIQMTQSPSTLSASVGDRVTITCRASQSVGRWLAWYQQKPGKAPKLLISDASSLEAGVPSRFSGSGSGTEFTLTISSLQPDDFATYYCQQCNGHITFGPGTKVDIK
Consider B10, for which the “pseudovirus neutralization IC50” value in assay [1] was found to be 0.0119 mg/L. Besides, the “pseudovirus neutralization IC90” value in assay [2] came out at 0.033 mg/L. The “ELISA binding EC50” value in assay [3] was found to be 0.00238 mg/L; in assay [4], 0.00302 mg/L; in assay [5], 0.00267 mg/L.

B11: B685 (protein)
chain 1: QVQLVQSGAEVKKPGASVKVSCKASGYTFSGHYIYWVRQAPGQGLEWMGRINPNTGDTDSAQKFQGRVTMTRDTSISTAYMELSRLGSDDTAVYYCARVFSRIRALVQGGVATFDIWGQGTMVTVSS
chain 2: DIQMTQSPSSLSASVGDRVTITCRASQTVSSNLNWYQHKPGKAPKLLIYTASNLQSGVPSRFSGGGSGTDFTLTIASLQPEDFATYYCQQSYSIPPTFGQGTKVEIK
For B11, the “pseudovirus neutralization IC50” value in assay [1] was 0.012 mg/L. Also, the “pseudovirus neutralization IC90” value in assay [2] is 0.241 mg/L. Also, the “ELISA binding EC50” value in assay [3] was 0.751 mg/L; in assay [4], over 1 mg/L; in assay [5] it was 0.00273 mg/L.

B12: B680 (protein)
chain 1: EVQLVESGGGLVQPGGSLRLSCVASGFTFSSYDMHWVRQTTGKGLEWVSLIGTAGDTYYPDSVKGRFTISRENAKNSLYLQMNSLRAEDTAVYYCARGGYSFGYGGGFFDPWGQGTLVTVSS
chain 2: DIQMTQSPSSLSASVGDRVTFTCRASQSISRYLNWYQQKPGKAPKLLIHGASSLQSGVPSRFSGSGSGTEFTLTINSLQPEDFATYYCQQSYSTPGYTFGQGTKLEIK
With B12, the “pseudovirus neutralization IC50” value in assay [1] is over 1 mg/L. Moreover, the “pseudovirus neutralization IC90” value in assay [2] was over 1 mg/L. For the same molecule, the “ELISA binding EC50” value worked out at 0.012 mg/L in assay [3], 0.0136 mg/L in assay [4] and 0.00204 mg/L in assay [5].

B13: B673 (protein)
chain 1: QVQLVQSGPEVKKPGASVKVSCKASGYTFSNYFIHWVRQAPGQGLEWVGMISPGGAGTSYAQKFQGRVTMTRDTSTNTVYMELTSLRSEDTAVYYCPRADSGSYHFFDYWGQGTLVTVSS
chain 2: DIQMTQSPSSLSASVGDRVTITCRASQSISSDLNWYQQKPGKAPQLLIYAASILQSGAPSRFSGSGSGTDFTLTISALQPEDFATYYCQQSYSLFPITFGQGTRLEIK
Turning to B13, in assay [1], the “pseudovirus neutralization IC50” value was determined as 0.00765 mg/L. Further, the “pseudovirus neutralization IC90” value in assay [2] amounted to 0.0473 mg/L. For the same molecule, the “ELISA binding EC50” value is 0.0162 mg/L in assay [3], over 1 mg/L in assay [4] and 0.00105 mg/L in assay [5].

B14: B684 (protein)
chain 1: QMQLVQSGPEVKKPGTSVKVSCKASGFTFTTSAVQWVRQARGQRLEWIGWIAVGSGNTDYAQKFQERVTITRDLSTSTAYMELRSLRSEDTAVYYCAAPYCSGGTCSDGFDIWGQGTMVTISS
chain 2: EIVLTQSPGTLSLSPGERATLSCRASQSVRTGYLAWYQQKPGQAPRLFINGASNRATGIPDRFSGSGSGTDFTLTISRLEPEDFAVYYCQQYGTSPWTFGQGTKVEIK
For B14, the “pseudovirus neutralization IC50” value in assay [1] was 0.00342 mg/L. Further, the “pseudovirus neutralization IC90” value in assay [2] worked out at 0.021 mg/L. Moreover, the “ELISA binding EC50” value in assay [3] was found to be 0.00788 mg/L; in assay [4], 0.0242 mg/L; in assay [5], 0.0023 mg/L.
